For one molecule, Kd and relative to insulin results are on record in patent US20110166064A1 (published 2011).

The target of the test is T1, Insulin-like Growth Factor I Receptor (IGF-1R).
T1 construct: also called IGFR; IGF receptor
The test is described as follows: competitive displacement, microtiter plate antibody capture assay with the IGF Type I receptor.

The term Kd denotes the concentration at which binding is half-saturated. Higher therefore signals a looser complex.

B1: Arg^B31, Arg^B32, Gly^A21-insulin (ligand)
chain 1: not shown
chain 2: not shown
notes: also called insulin Glargine; Lantus
Take B1: binding was characterised by a dissociation constant (Kd) of 3.1 nM and the relative to insulin was 3 fold, relative to insulin.
